Laboratory results from PubChem BioAssay AID686979 (National Center for Advancing Translational Sciences (NCATS), 2013).
In all, about 420,000 compounds went through this assay and about 50,000 (12%) were called active. Inconclusive results, whose numbers are uncertain, are shown with a selection of clear calls. Calls follow the shape of the dose curve; as a rule, active = well fitted inhibition curve with a large enough effect; inconclusive = small, poorly fitted or top-dose-only effect; inactive = flat fitted curve, though single readings scatter. No potency is given beside an inconclusive call; the fits are too rough.

Assay: qHTS for Inhibitors of human tyrosyl-DNA phosphodiesterase 1 (TDP1): qHTS in cells in presence of CPT; also: nearly all actives have a fitted effect of over 55% in size
Conditions: chicken DT40 Tdp1-/-;hTDP1 cells + 20 nM CPT, ATP luminescence, 48 h; activity change, negative = growth inhibition: at 46.2 µM (top of the series)
In short: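 Chicken DT40 Tdp1-/- cells complemented with human TDP1, 400 cells/well, exposed to compounds plus 20 nM camptothecin for at least 48 h at 37 C; viability read as ATP content by CellTiter-Glo luminescence.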
% is scaled to controls: 0 for no effect and ±100 for the full control effect; potency is read from the fitted curve at half-maximal effect; tags tell the direction and shape of the fitted curve.

SMILES	Potency	activity change, negative = growth inhibition
Cc1ccc(Nc2c(-c3ccccn3)nc3cccc(C)n23)cc1	active: 2.59 µM	–
O=C(Nc1nnc(C2CC2)o1)c1ccc(S(=O)(=O)N2CCc3ccccc3C2)cc1	–	inactive: -23.7%
Cc1nc(-c2ccccn2)sc1C(=O)Nc1ccc(Cl)c(Cl)c1	inconclusive [inhibitor, single point]	–
Cc1onc(-c2c(F)cccc2Cl)c1C(=O)Nc1ccc(S(=O)(=O)Nc2ncccn2)cc1	–	inactive: 0.785%
C(#Cc1ccccc1)CN1CCN(c2ccccn2)CC1	inconclusive [inhibitor, full curve, poor fit]	–
O=C(NCCc1nc2ccccc2[nH]1)c1ccc(Br)o1	–	inactive: 1.1%
O=C(CSc1nc(=O)n2ccccc2n1)N1CCN(c2ccccc2)CC1	–	inactive: 4.85%
COc1cc2c(cc1OC)CN(C(=O)CN1CCN(S(=O)(=O)c3ccccc3Br)CC1)CC2	inconclusive [inhibitor, single point]	–
Cc1ccc(Cl)cc1-n1ncc2c(Nc3cccc(C)c3C)ncnc21	active: 16.4 µM	–
Cc1nc(N/N=C/c2cccc(F)c2)cc(N2CCOCC2)n1	inconclusive [inhibitor, single point]	–
NC(=S)N/N=C/c1c[nH]c2ccc(OCc3ccccc3)cc12	inconclusive [inhibitor, single point]	–
Cc1cnn(C(=S)NCc2ccc(Cl)cc2)c1	inconclusive [inhibitor, partial curve]	–
CN(c1cc(Cl)c2c(c1)OCO2)c1cc2c(c3c1ccn3C)C1CCC2C1 (stereo not given)	inconclusive [inhibitor, single point]	–
CCOC(=O)N1CCC(c2nc(C)sc2C(=O)O)CC1	–	inactive: 6.55%
CCC1CCC2(CC1)NC(=O)N(CC(=O)Nc1cccc(S(=O)(=O)N(C)c3ccccc3)c1)C2=O (stereo not given)	inconclusive [inhibitor, single point]	–
CCOC(=O)c1c(NC(=S)NC)sc2c1CCCC2	inconclusive [inhibitor, single point]	–
C=Cc1ccc(CSc2nc(-c3ccc(C)cc3)nc3c2Cc2c(CO)cnc(C)c2O3)cc1	active: 14.6 µM	–
O=C(CCCCCCCC(=O)N1CCCCC1)N1CCCCC1	inconclusive [inhibitor, single point]	–
CC(C)c1ccc(OCC(=O)N(Cc2ccc(N(C)C)cc2)C2CCS(=O)(=O)C2)cc1 (stereo not given)	inconclusive [inhibitor, single point]	–
CCOC(=O)C1CCCN(C(=O)c2cnn(-c3ncc4c(n3)-c3ccccc3CCC4)c2C2CC2)C1 (stereo not given)	–	inactive: 10.7%
NCCCn1c(C(=O)c2ccc(Cl)cc2)c2ccc([N+](=O)[O-])cc2[n+]1[O-]	active: 4.11 µM	–
COc1cc(NC(=O)CN(C)S(=O)(=O)c2ccc3nc(C)sc3c2)cc(OC)c1	–	inactive: 4.15%
COC(=O)c1sc(NC(=O)C2CCCCC2C(=O)O)c(C(=O)OC)c1C (stereo not given)	–	inactive: 4.05%

SMILES	Potency	activity change, negative = growth inhibition
CC1(C)NC(=O)N(CCCCOc2ccc3ccccc3c2Cl)C1=O	inconclusive [inhibitor, single point]	–
CC(=O)Nc1ccc(S(=O)(=O)N2CCN(CC(O)COc3ccc4ccccc4c3)CC2)cc1 (stereo not given)	inconclusive [inhibitor, partial curve]	–
CC(C)NC(=S)NC(=O)c1ccc(-c2ccccc2)cc1	active: 23.1 µM	–
COc1ccccc1CCNC(=O)C(=O)NCC1OCCN1S(=O)(=O)c1ccc(Cl)cc1 (stereo not given)	inconclusive [inhibitor, partial curve]	–
CCOC(=O)C1=C(CSc2nc3ccccc3s2)NC(=O)NC1c1cccc([N+](=O)[O-])c1 (stereo not given)	active: 18.4 µM	–
Cc1noc(C)c1-c1ccc2ncnc(N3CCC(C(=O)O)CC3)c2c1	inconclusive [inhibitor, single point]	–
Cc1cc(C)c(C)c(C(=O)CSc2nnc(-c3ccc4[nH]c(C)c(C)c4c3)o2)c1C	inconclusive [inhibitor, single point]	–
COc1ccc(C2CC(=O)Oc3c(C(CCN4CCCC(C)C4)c4ccc(N(C)C)cc4)c(OC)cc(OC)c32)cc1 (stereo not given)	inconclusive [inhibitor, single point]	–
OCC1O[C@@H](OC2C(O)C(CO)O[C@@]2(CO)O[C@@H]2OC(CO)C(O)C(O)C2O)C(O)C(O)C1O (stereo not given in full)	–	inactive: -1.64%
Cn1c(=O)c2sccc2n2c(CCCC(=O)NCc3ccc(F)cc3)nnc12	–	inactive: 2.84%
O=c1c(S(=O)(=O)c2cccc(Cl)c2)cn(Cc2ccccc2)c2cc(N3CCOCC3)c(F)cc12	inconclusive [inhibitor, single point]	–
Cc1cc(N2CCN(C(=O)c3ccco3)CC2)c2ccccc2n1	–	inactive: -15.3%
O=C(Nc1cccc(C(=O)OCc2cc(=O)n3c4c(sc3n2)CCCC4)c1)c1ccccc1	inconclusive [inhibitor, single point]	–
COc1ccc2c(c1)[nH]c1c(Cl)ncnc12	inconclusive [inhibitor, partial curve]	–
COC(=O)/C=C1\OCc2cc(OC)c(OCc3ccccc3)cc21	inconclusive [inhibitor, single point]	–
CCC/C(C#CCCN1C(=O)c2ccccc2C1=O)=C1/c2ccccc2C(=O)N1c1ccccc1	active: 18.4 µM	–
Cc1nc(C)c(-c2csc(Nc3ccc(C(=O)O)c(O)c3)n2)s1	–	inactive: -2.84%
Cc1ccc2nc(-c3cccnc3)c(Nc3ccccc3C)n2c1	active: 16.4 µM	–
O=C(NCCN1CCC(n2c(=O)[nH]c3ccccc32)CC1)c1cccnc1Cl	–	inconclusive: -30.1% [inhibitor]
COc1cccc(Sc2nc(N(C)C)ncc2S(=O)(=O)c2ccc(Cl)cc2)c1	inconclusive [inhibitor, single point]	–
Cc1cccc(N2CCN(Cc3c(C)n(C)n(-c4ccccc4)c3=O)CC2)c1C	inconclusive [inhibitor, partial curve]	–
Cc1nc2ccccc2c(=O)n1/N=C/c1c(O)ccc2oc3c(c12)CCCC3	active: 20.6 µM	–
